Measured values taken from the supplement of paper PMC10126150.
Values marked as one replicate rest on one cluster of the flow cell; about a third of the high ones do not repeat.

Each sequence was assayed on ATP (assay: switch fluorescence ratio, 500 uM ATP over buffer (Cy3 cluster intensity, sum of 5 cycles each) (fold (ratio)); higher = stronger signal-on switching upon ATP binding; sequences stand for … in TCGTCGGCAGCGTCAGATGTGTATAAGAGACAGTTTTTTTTTTTTTTTTTTTTTTTTT…TC). Conditions: aptamer strand: ATP DNA aptamer (quencher-CACCTGGGGGAGTATTGCGGAGGAAGG + anchor), 100 nM annealed; ATP concentration: 500 uM; one replicate.
Method in brief: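 Clusters carrying Cy3-labelled switching strands on a modified Illumina MiSeq flow-cell were annealed to 100 nM quencher-labelled ATP aptamer and imaged in selection buffer. They were imaged again after 15 min with 500 uM ATP at 22 °C, over five buffer/ATP cycles with NaOH stripping and re-annealing in between. For each cluster, the fluorescence ratio is the summed Cy3 intensity of the target cycles divided by that of the buffer cycles, averaged per switch-domain sequence. Clusters outside 100-1000 RFU were left out.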
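Further: ATP exposure 15 min at 22 °C before imaging.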

| Sequence | switch fluorescence ratio |
| --- | --- |
| TGAGCACCTT | 1.04 |
| TGAGCCCAGA | 1.03 |
| TGAGCCGATT | 1.05 |
| TGAGCCGCGT | 1.02 |
| TGAGCGAACT | 1.04 |
| TGAGCTCTTT | 1.04 |
| TGAGGAGGC | 1.06 |
| TGAGGCAGTA | 1.12 |
| TGAGGCCAGT | 0.986 |
| TGAGGCTCCA | 1.02 |
| TGAGGCTGCG | 0.975 |
| TGAGGCTTCA | 1.07 |
| TGAGGGACGT | 0.994 |
| TGAGGGCTA | 1.03 |
| TGAGGGGTG | 1.02 |
| TGAGGTCTGT | 0.999 |
| TGAGTAGTTT | 0.971 |
| TGAGTCACA | 1.04 |
| TGAGTCCCTC | 0.991 |
| TGAGTCCTGG | 1.01 |
| TGAGTGAATA | 1 |
| TGAGTGATTA | 1.01 |
| TGAGTGCAGA | 1.01 |
| TGAGTGCCAT | 0.981 |
| TGAGTGCTGA | 0.967 |
| TGAGTTAGTA | 0.993 |

| Sequence | switch fluorescence ratio |
| --- | --- |
| TGAGTTTCGT | 0.972 |
| TGAGTTTGTA | 0.935 |
| TGATAATCGA | 1.01 |
| TGATACCCAT | 1.04 |
| TGATACGTTT | 1.05 |
| TGATACTCCT | 1.38 |
| TGATACTTGT | 0.994 |
| TGATAGAGG | 1.03 |
| TGATAGGGGG | 1.02 |
| TGATAGTCTT | 0.953 |
| TGATATCAC | 0.998 |
| TGATATGTG | 1.02 |
| TGATATTCGT | 1.02 |
| TGATATTTG | 0.968 |
| TGATCCTTTT | 0.989 |
| TGATCGACCT | 1.22 |
| TGATCGCCTA | 0.997 |
| TGATCGTACG | 1.02 |
| TGATCTATGT | 0.986 |
| TGATGAGCG | 0.982 |
| TGATGCGCGA | 1.09 |
| TGATGTCGGA | 0.965 |
| TGATTAACAA | 1.05 |
| TGATTATGCA | 0.971 |
| TGATTGATCC | 1.02 |
| TGATTGCCTG | 1.03 |

| Sequence | switch fluorescence ratio |
| --- | --- |
| TGATTGTAGG | 1.04 |
| TGATTTACG | 1.02 |
| TGATTTAGGG | 1.04 |
| TGATTTCTGT | 1.01 |
| TGATTTGAGC | 0.961 |
| TGATTTGTG | 0.939 |
| TGATTTTTCC | 1.1 |
| TGCAAAAATA | 0.983 |
| TGCAAACCGA | 1.72 |
| TGCAACGTTG | 0.967 |
| TGCAAGAATC | 1 |
| TGCAATATGG | 1.79 |
| TGCAATTCGG | 1.29 |
| TGCACGCCGC | 1.2 |
| TGCAGAATTT | 0.923 |
| TGCAGATTCA | 1.01 |
| TGCAGCACCG | 1.01 |
| TGCAGCCATT | 1.01 |
| TGCAGCCCAC | 1.41 |
| TGCAGCCCTA | 1.01 |
| TGCAGGCATC | 0.96 |
| TGCAGTCGGG | 0.981 |
| TGCAGTTAGT | 1.01 |
| TGCATAGGGC | 0.992 |
| TGCATCAGTG | 0.968 |
| TGCATTCAG | 1.02 |

| Sequence | switch fluorescence ratio |
| --- | --- |
| TGCATTTACC | 1.14 |
| TGCCAACAGG | 1.09 |
| TGCCACCTG | 1.02 |
| TGCCACGTTT | 1.03 |
| TGCCAGCACT | 1.3 |
| TGCCAGTGAG | 0.976 |
| TGCCATAAG | 1.02 |
| TGCCATATGT | 1.03 |
| TGCCATGTCA | 0.998 |
| TGCCATTACT | 1.05 |
| TGCCCGTAAG | 1.02 |
| TGCCCTGTGC | 0.976 |
| TGCCGAGCAC | 1.56 |
| TGCCGCAGTT | 1.33 |
| TGCCGGGCGT | 0.999 |
| TGCCGGTGTG | 0.981 |
| TGCCGTGACA | 0.988 |
| TGCCGTTTTA | 1 |
| TGCCTCTTTA | 0.956 |
| TGCCTGAAGA | 1.04 |
| TGCCTGGCCC | 1.02 |
| TGCCTGGCGA | 1.02 |
| TGCCTTGCGA | 1.05 |
| TGCGAAGGCG | 0.999 |
| TGCGACAGGA | 1.03 |
| TGCGACCGGG | 0.931 |

| Sequence | switch fluorescence ratio |
| --- | --- |
| TGCGACCTAA | 1.08 |
| TGCGACCTTT | 0.996 |
| TGCGACGACG | 1.05 |
| TGCGAGCTGG | 0.958 |
| TGCGAGTAAA | 1.03 |
| TGCGATCCCG | 0.999 |
| TGCGATGAAC | 1.19 |
| TGCGCACGAG | 1.01 |
| TGCGCCG | 1.03 |
| TGCGCGAGGT | 1 |
| TGCGCGTGGA | 0.969 |
| TGCGCTGACT | 1.03 |
| TGCGCTGAGA | 1.04 |
| TGCGCTTATT | 1.01 |
| TGCGCTTCTC | 1.12 |
| TGCGGAGCG | 0.961 |
| TGCGGGACGG | 1.02 |
| TGCGGGATAG | 1.07 |
| TGCGGTATG | 0.983 |
| TGCGGTGAT | 1.01 |
| TGCGGTTTGC | 0.937 |
| TGCGTAACTT | 1.04 |
| TGCGTCAGCA | 0.972 |
| TGCGTCGCCC | 0.997 |
| TGCGTCGGAT | 0.992 |
| TGCGTTAGGA | 1.01 |

| Sequence | switch fluorescence ratio |
| --- | --- |
| TGCGTTAGTA | 1 |
| TGCGTTGATG | 1.04 |
| TGCGTTTGTG | 0.974 |
| TGCTAAAGTT | 1.02 |
| TGCTACCACG | 1.05 |
| TGCTACTCTG | 1.06 |
| TGCTAGAGAT | 0.984 |
| TGCTATGTAT | 0.984 |
| TGCTCAGGTA | 1.02 |
| TGCTCATAAA | 1.01 |
| TGCTCGAGGA | 0.975 |
| TGCTGAGCTG | 0.89 |
| TGCTGAGTCG | 1.02 |
| TGCTGATACG | 1.04 |
| TGCTGATCAC | 1.01 |
| TGCTGGCACG | 0.986 |
| TGCTGGCAGG | 0.98 |
| TGCTGGCGTC | 0.98 |
| TGCTGGCTG | 0.984 |
| TGCTGGTCAC | 0.993 |
| TGCTGTTTGT | 1 |
| TGCTTATCGA | 0.95 |
| TGCTTCAAAT | 1.03 |
| TGCTTCGTCC | 1.3 |
